# Source: PubChem BioAssay AID1508623 (National Center for Advancing Translational Sciences (NCATS), 2021)
# About 450 (0.94%) of roughly 48,000 compounds were called active. Not shown: some 19% with an inconclusive outcome. Calls come from the whole dose curve; as a rule, active = well fitted inhibition curve with a large enough effect; inconclusive = small, poorly fitted or top-dose-only effect; inactive = no such curve, though single readings can be large or run the other way. This is one part of the list.
# Assay: Primary qHTS for Identification of Small Molecule Inhibitors of Huntingtin Promoter Activity; note: nearly all actives have a fitted effect of over 50% in size
# Details: HEK293 HTT promoter firefly luciferase reporter (activity 0% = vehicle and -100% = no light), 24 h; series mostly up to 57.5 µM; activity change, negative = inhibition: at the top concentration
# Summary of the method: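 Luminescence was read after Dual-Glo reagent and a 10 min room-temperature incubation. Values were normalized to vehicle (0% activity) and zero RLU (-100% activity). Reporter HEK293 cells had been exposed to compounds (up to 57.5 uM final) for 24 h.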
row,SMILES,"activity change, negative = inhibition"
1,CCc1ccccc1NC(=O)c1oc(=O)c2ccccc2c1-c1ccccc1,inactive: -25.6%
2,CCCCCN(CCCCC)C(=O)C(CCC(=O)O)NC(=O)c1ccc(Cl)c(Cl)c1 (stereo unspecified),inactive: -11.8%
3,CCCCOc1cccc(C(=O)Nc2sc3c(c2C(=O)OCC)CCCC3)c1,inactive: -6.81%
4,Cc1cccc2c(=O)cc(CSc3ccccc3NC(=O)C(C)C)[nH]c12,inactive: 6.47%
5,COc1cccc(NC(=O)CSc2nc(=O)n(Cc3cccnc3)c3c2CCC3)c1,inactive: 0%
6,Cc1ccc2nc3c(cc(C#N)c(=O)n3-c3nnc(SCc4ccc(F)cc4)s3)c(=O)n2c1,inactive: -9.06%
7,COc1ccc(OCC(=O)Nc2ccc(-c3nc4cc(Cl)ccc4o3)cc2)cc1,inactive: 105%
8,Cc1ccc(Sc2ccc(N3CCCC(C(=O)Nc4ccc(F)c(Cl)c4)C3)nn2)cc1 (stereo unspecified),inactive: -28.2%
9,COc1ccc(CCNC(=O)CCCCn2c(=O)c3ccccc3n(Cc3cc(C)ccc3C)c2=O)cc1OC,inactive: -6.41%
10,CCOc1ccc(CNC(=O)c2ccc3c(c2)c(C)c(C)n3C)cc1,inactive: 3.1%
11,CCCN(CCC)C(=O)Cn1c(=O)n(-c2ccc(OC)cc2OC)c(=O)c2c3c(sc21)CCC3,inactive: -12.1%
12,CCOc1ccc(-n2c(SCc3ccccc3)nc3c([nH]c4ccccc43)c2=O)cc1,inactive: -12.3%
13,CCCn1c2ccccc2c2cnn(CC(=O)NCC3CCN(Cc4ccc(C)cc4)CC3)c(=O)c21,inactive: -13.4%
14,Cc1ccc(NC(=O)Nc2nnc(SCC(=O)N3CCCCC3)s2)cc1,inactive: -15.2%
15,COc1cccc(N2CC(NC(=O)c3cc4ccccc4o3)CC2=O)c1 (stereo unspecified),inactive: -23.3%
16,CC(C)c1ccc2c(c1)NC(c1ccc(F)cc1)=NC(c1cccs1)=N2,inactive: -28.2%
17,Cc1nc2ncnn2c(C)c1CCC(=O)N1CCN(c2ccc(F)cc2)CC1,inactive: -0.563%
18,Cc1cccc(C(=O)NCCc2nc3ccccc3n2Cc2ccccc2Cl)c1,inactive: 0.0337%
19,CCOC(=O)CCc1c(C)nc2c(-c3ccccc3)c(C)[nH]n2c1=O,inactive: -10.8%
20,O=C(CSc1nnc(-c2ccncc2)n1-c1ccccc1)Nc1ccc(F)cc1,inactive: -14.2%
21,CCOc1ccccc1CNC(=O)CSc1n[nH]c(-c2ccccc2)n1,inactive: -28.7%
22,CC(C)c1noc(-c2ccccc2OCC(=O)Nc2ccc([N+](=O)[O-])cc2)n1,inactive: -8.22%
23,COc1ccc(OC)c(C2C(C(=O)Nc3ccc(C)cc3C)=C(C)Nc3c(C(=O)Nc4ccc(F)cc4)cnn32)c1 (stereo unspecified),inactive: 3.29%
24,CCn1c2c(c(=O)n3ncc(C(=O)N4CCN(c5ccccc5)CC4)c13)CN(Cc1ccc(OC)cc1)CC2,inactive: -27.2%

row,SMILES,"activity change, negative = inhibition"
1,Cc1cc(=O)n(Cc2cccc(Cl)c2)c2c1c(C)nn2C,inactive: 0%
2,Nc1ccc(O)cc1,inactive: 12%
3,CCOC(=O)c1ccccc1NC(=O)c1cn(CC(C)C)c(=O)c2cc(OC)c(OC)cc12,inactive: -0.306%
4,COc1ccc(OC)c(-c2noc(CSc3nnc(-c4ccccc4)n3-c3ccccc3)n2)c1,inactive: -14.2%
5,Cc1ccc(OCC(=O)Nc2nnc(S(=O)(=O)N3CCc4ccccc43)s2)cc1,inactive: -9.46%
6,COc1ccc(N2CCN(S(=O)(=O)c3ccc(C4CCCCC4)cc3)CC2)cc1,inactive: -13.8%
7,CCCCN(CCCC)CCC(O)c1cc2c(Cl)cc(Cl)cc2c2cc(C(F)(F)F)ccc12 (stereo unspecified),inactive
8,COCCCNC(=O)CCCn1c(SCC(=O)c2ccc(F)cc2)nc2c(sc3ccccc32)c1=O,inactive: -12.1%
9,COc1ccc(CNC(=O)CSc2ncc3c(n2)-c2ccc(Cl)cc2N(Cc2ccc(F)cc2)S3(=O)=O)cc1OC,inactive: -14.5%
10,CCOC(=O)c1ccc(NC(=O)CSc2nnc3c4ccccc4n(CC)c3n2)cc1,inactive: 0%
11,O=C(CSc1c2c(nc3ccccc13)CCC2)Nc1ccc(F)cc1,inactive: -12.6%
12,COc1ccc(Cn2c(C(=O)O)c(CNCc3ccco3)c3ccc(OC)cc32)cc1,inactive: -29.7%
13,COc1ccc(-n2cnc3cc(C(=O)NC4CCCC4)ccc32)cc1,inactive: -20.7%
14,CN(C)c1ccc(CNC(=O)c2ccc(Cn3c(=O)c4cccn4c4cccnc43)cc2)cc1,inactive: -7.75%
15,CCc1ccc2ncc(C(=O)c3ccc(C)c(C)c3)c(N3CCC(C(N)=O)CC3)c2c1,inactive: -16.4%
16,Cc1ccc(Cn2c(CNC(=O)CCc3ccccc3)nc3cccnc32)cc1,inactive: -3.78%
17,Cc1cccc(N2CCN(Cc3nnc(-c4ccccc4C)o3)CC2C)c1 (stereo unspecified),inactive: -28.5%
18,CCCOc1ccc(C(=O)N(Cc2ccccc2Cl)C2CCS(=O)(=O)C2)cc1 (stereo unspecified),inactive: -18.2%
19,COc1ccc(C2=Nc3ccc(F)cc3NC(c3cccc(C(F)(F)F)c3)=N2)cc1,inactive: -13.2%
20,COC(=O)c1ccccc1NC(=O)c1cnc(Nc2ccc(OC)cc2)c2ccccc12,inactive: -6.73%
21,CCCCOc1cccc(C(=O)N(Cc2ccc(N(C)C)cc2)C2CCS(=O)(=O)C2)c1 (stereo unspecified),inactive: -30.8%
22,Cc1cc(-c2nc3ncccc3o2)ccc1NC(=O)c1ccccc1Br,inactive: 6.86%
23,O=C(COc1ccc(F)cc1)NCC(c1ccc(Cl)cc1)N1CCCCC1 (stereo unspecified),inactive: -29%
24,Cc1ccc(CCNC(=O)CCCn2c(=O)c3ccccc3n(Cc3ccccc3C)c2=O)cc1,inactive: -26.2%

row,SMILES,"activity change, negative = inhibition"
1,COc1cc(OC)c(-c2cc(C(=O)NCc3ccc(F)cc3)c3c(-c4ccccc4)[nH]nc3n2)cc1OC,inactive: -22.4%
2,COc1ccc(CCNC(=O)Cn2c(=O)n(-c3ccccc3)c(=O)c3c(C)c(C)sc32)cc1OC,inactive: -16.9%
3,CC(=O)N1c2ccc(S(=O)(=O)N3CCCCCC3)cc2CC1C(=O)NCc1ccccc1C (stereo unspecified),inactive: -19.8%
4,COc1ccc(-n2nc(C(=O)N3CCN(c4ccccc4OC)CC3)c3c4ccccc4n(C)c3c2=O)cc1Cl,inactive: 1.41%
5,COc1ccccc1CNC(=O)CCCN1C(=O)CSc2c1c(C)nn2-c1ccccc1,inactive: -2.02%
6,CC(=O)N1CCOc2cc(S(=O)(=O)NCc3ccc(F)cc3)c(C)cc21,inactive: 10.5%
7,O=C(Nc1ccc2c(c1)CCCN2C(=O)c1cccs1)c1ccccc1,inactive: -17.5%
8,O=C(Cn1c(=O)n(Cc2ccccc2)c(=O)c2sc3ccccc3c21)Nc1ccccc1F,inactive: -13.3%
9,O=C(NC1CCCc2ccccc21)c1ccc2c(c1)sc1nc(-c3ccccc3)cn12 (stereo unspecified),inactive: -4.69%
10,CC(C)C1N=C2c3ccccc3N=C(SCC(=O)NCc3ccc(Cl)cc3)N2C1=O (stereo unspecified),inactive: -22.9%
11,CCOc1ccccc1NC(=O)C1CCN(S(=O)(=O)c2cccs2)CC1,inactive: 2.04%
12,CCOc1ccc(NC(=O)Cn2ccn3nc(-c4ccc(OC)c(OC)c4)cc3c2=O)cc1,inactive: 11.6%
13,COc1cc(F)c(F)c(Nc2ccc(I)cc2F)c1NS(=O)(=O)C1(C[C@H](O)CO)CC1,inactive: -8.88%
14,Cc1cc(C)cc(NC(=O)Nc2ccc3nc(N4CCN(C)CC4)cc(C)c3c2)c1,inactive: 4.2%
15,Cc1nc(N2CCCC2)c2c(C(=O)Nc3cccc(Cl)c3)c(C)oc2n1,inactive: -11.7%
16,CCCS(=O)(=O)c1nc(S(=O)(=O)c2ccc(C)cc2)c(NCc2ccccc2Cl)s1,inactive: -23.5%
17,CC1(C)CC(=O)c2cc(C#N)c(=O)n(-c3ccc(Cl)cc3)c2C1,inactive: 14.7%
18,COc1ccc(NC(=O)Cn2cc(C(=O)c3ccccc3)c(=O)c3cc(OC)ccc32)c(OC)c1,inactive: 5.9%
19,O=C(O)CCC(=O)Nc1sc2c(c1C(=O)Nc1ccccc1)CCCCC2,inactive: -0.535%
20,Cc1ccsc1CN(C(=O)c1ccc(OCC(C)C)cc1)C1CCS(=O)(=O)C1 (stereo unspecified),inactive: -25.9%
21,Cc1ccc2oc(-c3cccc(NC(=O)Cc4ccc(Cl)cc4)c3)nc2c1,inactive: -3.95%
22,Cc1ccc(Sc2c(C)nn(C(=O)c3ccc(Cl)cc3)c2C)cc1,inactive: -6%
23,CCOC(=O)c1c(S(=O)(=O)N2CCCC(C(=O)Nc3ccc(C)cn3)C2)c(C)n(C)c1C (stereo unspecified),inactive: -10.9%
24,Cc1ccc(-n2c3nc(=O)[nH]c(=O)c-3cc3c(C)nn(-c4ccccc4)c32)cc1C,inactive: -14.2%

row,SMILES,"activity change, negative = inhibition"
1,Cc1cccc(NC(=O)CSc2nc3ccccc3nc2N2CCOCC2)c1C,inactive: -3.73%
2,CCOc1ccc(CNS(=O)(=O)c2cc3c(cc2C)NC(=O)CO3)cc1,inactive: -5.14%
3,CC(=O)c1ccc(N2CCN(C(=O)CCCCn3c(=O)[nH]c4ccsc4c3=O)CC2)cc1,inactive: -2.41%
4,CCSc1nnc(NC(=O)c2cc(=O)c3cc(C)c(C)cc3o2)s1,inactive: -8.76%
5,COc1ccc(Cn2c(=O)c3cccnc3n(CC(=O)Nc3c(C)cc(C)cc3C)c2=O)cc1,inactive: 5.83%
6,CCc1cnc2c(c1SCC(=O)c1ccc(Cl)cc1)c(=O)n(C)c(=O)n2C,inactive: -17.8%
7,CCOC(=O)c1c(-c2ccc(OC)cc2)oc2ccc(OCc3ccc(Br)cc3)cc12,inactive: -4.01%
8,Cc1ccc(N(CC(=O)Nc2ccc(Br)cc2)S(=O)(=O)c2cccs2)cc1,inactive: -11.1%
9,COc1ccc(S(=O)(=O)n2nc(C)c(S(=O)(=O)N3CCC(C)CC3)c2C)cc1OC,inactive: -5.1%
10,O=C(Nc1nnc2n1CCS2)c1ccccc1C(F)(F)F,inactive: 1.19%
11,CC(C)CCNC(=O)CCC(=O)NNc1nc2ccccc2c2nc(-c3ccccc3)nn12,inactive: -5.73%
12,COc1cc(OC)cc(C(=O)N2CC(=O)Nc3ccc(Cl)cc3C2c2ccccc2)c1 (stereo unspecified),inactive: -10.9%
13,COc1ccc(C2=C(C)C(N3CCC(C(=O)Nc4ccc(F)cc4C)CC3)=NS2(=O)=O)cc1,inactive: -19.3%
14,O=C(Nc1ccc(Cl)c(C(F)(F)F)c1)C(Cc1ccccc1)NS(=O)(=O)c1ccc(Br)s1 (stereo unspecified),inactive: 1.74%
15,CCOc1ccc(NC(=O)C(=O)NCc2ccco2)cc1,inactive: -18.1% [at 11.5 µM]
16,COc1cccc(C(=O)NCC(c2ccc3c(c2)OCO3)N2CCOCC2)c1 (stereo unspecified),inactive: -4.54%
17,O=C(NCc1ccccc1)C(=O)NCC(c1cccs1)S(=O)(=O)c1ccccc1 (stereo unspecified),inactive: -39.1%
18,CC1(C)CC(=O)c2cc(C(=O)Nc3ccccc3Cl)c(=O)n(-c3ccc(Cl)cc3)c2C1,inactive: -21.9%
19,COc1ccc2cc3cc(C(=O)NCc4ccccc4OC)oc3nc2c1,inactive: -11.6%
20,Cc1cccc(NC(=O)CSc2nc(-c3ccco3)cc(C(F)(F)F)n2)c1C,inactive: -13.4%
21,Cc1ccc(N(Cc2cccs2)C(=O)c2ccccc2Cl)cc1,inactive: -29%
22,O=C(c1ccccc1Cl)N1CCCCC1CCN1CCCCC1 (stereo unspecified),inactive: -9.79%
23,O=C(Nc1nnc2n1CCS2)c1ccc(F)cc1F,inactive: 52.5%
24,COc1ccc(NC(=O)C(C)N(c2ccccc2)S(C)(=O)=O)cc1 (stereo unspecified),inactive: 3.57% [at 11.5 µM]
